Reference: PubChem BioAssay (NCATS)
Inconclusive means that the source gave no clear call. Such entries were picked first, then a sample of the others. For some assays here: No potency is given beside an inconclusive call; the fits are too rough. Calls of active or inactive are those of the source. Unless noted, calls follow the shape of the dose curve; as a rule, active = well fitted curve in the direction sought with a large enough effect; inconclusive = small, poorly fitted or top-dose-only effect, or another doubt; inactive = no such curve, though single readings can be large; an effect the other way counts as inactive or inconclusive.

Columns and labels:
[1] = target: Cytochrome P450 2C9 (Homo sapiens) (UniProt P11712); assay: Cytochrome P450 family 2 subfamily C member 9 (CYP2C9) small molecule antagonists: luciferase biochemical (cell-free) qHTS assay (AID 1645842; active = well fitted curve in the direction sought with a large enough effect in the repeat runs; inconclusive = weak or mixed curves; inactive = no such curve, though single readings can be large; an effect the other way counts as inactive or inconclusive; also: potency is read from the fitted curve at half-maximal effect; nearly all actives have a fitted effect of over 55% in size)
How it was run: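 Luminescence, after 20 min with luciferin detection reagent, reflected CYP2C9 turnover during a 1 h NADPH-driven reaction at 37C. Enzyme-substrate mix contained 0.4% bovine serum albumin and was preincubated with compound 10 min at room temperature.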

[2] = target: N-terminal Xaa-Pro-Lys N-methyltransferase 1 (Homo sapiens) (UniProt Q9BV86); assay: Confirmatory qHTS for Inhibitors of N-terminal methyltransferase 1 (NTMT1): MTaseGlo Assay (AID 1645874); also: potency is read from the fitted curve at half-maximal effect; nearly all actives have a fitted effect of over 65% in size
How it was run: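 Preincubation of NTMT1 (125 nM) plus SAM (100 uM) with test compounds lasted 15 min; methylation of 1 uM SPKRIA then proceeded 30 min in the dark at room temperature. Luciferase signal reported SAH produced.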

[3] = target: Phospholipid hydroperoxide glutathione peroxidase GPX4 (Homo sapiens) (UniProt P36969); assay: Primary qHTS Assay for Inhibitors of Recombinant Selenoprotein Glutathione Peroxidase 4 (GPX4) (AID 1845192); also: potency is read from the fitted curve at half-maximal effect; nearly all actives have a fitted effect of over 65% in size
How it was run: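 GR-coupled assay: recombinant GPX4 preincubated 30 min with compound at room temperature; final 200 nM GPX4, 1 mM GSH, 0.5 mM cumene hydroperoxide, 0.5 mM NADPH, 100 nM GR, 0.01% BSA, pH 7.5 Tris. NADPH fluorescence (340/450 nm) read at 0 and 15 min.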

[4] = NFAT Signaling Pathway (AID 444; active = well fitted curve in either direction with a large enough effect, not every such curve was filed as active; inconclusive = small, poorly fitted or top-dose-only effect, or another doubt;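 also: carbachol stimulus at about its EC50 of 1 µM final; % is scaled to controls: 0 for no effect and ±100 for the full control effect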); details: Jurkat NFAT-bla M1, carbachol, beta-lactamase ratio, 5 h; at 7.69 µM (top of the series) unless noted
How it was run: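 Jurkat cells with NFAT-driven β-lactamase reporter and co-expressed M1 receptor, stimulated with carbachol (final 1 uM, ~EC50), compound titration, 5 h at 37 °C. CCF4 loaded 1 h at RT; 460/530 nm ratio gave %activity and AC50.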

[5] = target: Mitogen-activated protein kinase 10 (Mus musculus) (UniProt Q61831); assay: JNK3 AlphaScreen Assay (AID 530; active = well fitted curve in either direction with a large enough effect, not every such curve was filed as active; inconclusive = small, poorly fitted or top-dose-only effect, or another doubt;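 also: kinase came from lysate of stimulated human HepG2 cells; signal reports phosphorylation of biotinylated GST-cJun 1-79 at Ser73 with 10 µM ATP; % is scaled to controls: 0 for no effect and ±100 for the full control effect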); details: JNK3 lysate, c-Jun phosphorylation; activity change, negative = inhibition: at 57.1 µM (top of the series)
How it was run: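 Pre-activated (IL-1β/TNFα) JNK3 in HepG2 lysates phosphorylates biotin-GST-cJun(1-79), 10 uM ATP; anti-phospho-cJun(Ser73) AlphaScreen read at room temperature, pH 7.6 Tris buffer. Compounds pre-incubated 15 min as titrations.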

[6] = qHTS Assay for Identification of Small Molecule Antagonists for NFkB Signaling Pathway (AID 895; active = well fitted inhibition curve with a large enough effect in the signal ratio, with a control signal flat, not every such curve was filed as active; inconclusive = small, poorly fitted or top-dose-only effect, or effect the other way, or a change in a side signal; the % refers to the signal ratio; also: % is scaled to controls: 0 for no effect and ±100 for the full control effect); details: NFkB beta-lactamase reporter cells, FRET ratio 460/530, stimulated with 10 pM TNF alpha; activity change, negative = inhibition: at 38.3 µM (top of the series)
How it was run: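 ME-180 NFkB-bla cells (beta-lactamase under NFkB response element), plated overnight, treated with compound then 10 pM TNF alpha (about EC50) for 5 hrs at 37 C. LiveBLAzer FRET read at 460/530 nm emission, 405 nm excitation.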

[7] = qHTS Assay for Identification of Small Molecule Agonists for Hypoxia Response Element Signaling Pathway (AID 914; active = well fitted activation curve with a large enough effect in the signal ratio, with a control signal flat, not every such curve was filed as active; inconclusive = small, poorly fitted or top-dose-only effect, or effect the other way, or a change in a side signal; the % refers to the signal ratio; also: top concentration of the series differs between compounds; % of control where 0% means no effect); details: ME-180 (cervical carcinoma) HRE-bla reporter, beta-lactamase ratio, CoCl2, 17 h; activation: hits give high values
How it was run: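 Read-out: CCF4 FRET ratio of 460nm to 530nm emission (excitation 405nm) after 2.5 hours at room temperature, taken from HRE-bla ME-180 cells that had been exposed to compound and EC50 CoCl2 for 17 hours.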

[8] = qHTS Assay for Identification of Small Molecule Antagonists for Thrombopoietin (TPO) Signaling Pathway (AID 918); details: TPO-dependent cell signaling reporter, antagonist mode; activity change, negative = inhibition: at 38.5 µM (top of the series); also: nearly all actives have a fitted effect of over 60% in size
How it was run: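 Ba/F3 (murine, hTPO-R, GPIIb-luc reporter); overnight IL-3 withdrawal; cpd + TPO 26 pM final (EC50); 24 h 37 C/5% CO2; Steadylite luminescence after 10 min RT.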

[9] = target: Muscarinic acetylcholine receptor M1 (Rattus norvegicus) (UniProt P08482); assay: qHTS Assay for Antagonists of Acetylcholine Muscarinic M1 Receptor: Kinetic Measurement of Intracellular Calcium Response (AID 943); also: potency is read from the fitted curve at half-maximal effect; nearly all actives have a fitted effect of over 75% in size
How it was run: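 Rat M1-CHO cells, 2000/well, overnight → Fluo-4 no-wash dye with probenecid, 1 h 37C → compound 10 min, room temp → basal read 6 s → carbachol EC80 (100 nM) → 4 min kinetic read; peak/basal.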

[10] = target: Muscarinic acetylcholine receptor M1 (Rattus norvegicus) (UniProt P08482); assay: qHTS Assay for Antagonists of Acetylcholine Muscarinic M1 Receptor: Measurement of IP-One Response (AID 944); also: potency is read from the fitted curve at half-maximal effect; nearly all actives have a fitted effect of over 75% in size
[11] = target: ATP-dependent 6-phosphofructokinase (Trypanosoma brucei brucei) (UniProt O15648); assay: qHTS Validation Assay to Find Inhibitors of T. brucei phosphofructokinase (AID 485368);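 also: 0% = full PFK enzyme control and -100% = wells without enzyme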
How it was run: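 Enzyme reaction in triethanolamine buffer pH 8.0 with 5 mM MgCl2, 0.01% Tween20 and 0.1% BSA; PFK 1.25 nM, F6P 0.5 mM, ATP 0.1 mM, 45 min RT. ADP quantified by ADP-Glo.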

[12] = target: D(1A) dopamine receptor (Homo sapiens) (UniProt P21728); assay: HTS Assay for Allosteric Agonists of the Human D1 Dopamine Receptor: Primary Screen for Potentiators (AID 488982); also: potency is read from the fitted curve at half-maximal effect
How it was run: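 Tetracycline-induced HEK293 Trex D1 cells with forced coupling to calcium, loaded with no-wash calcium dye; kinetic fluorescence read 180 s after compound addition for agonism, then a further 180 s after an EC20 dopamine challenge for potentiation.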

[13] = qHTS Assay for Identifying Gametocytocidal Compounds (AID 743244); also: potency is read from the fitted curve at half-maximal effect; details: P. falciparum 3D7 stage III-V gametocytes, alamarBlue, 72 h; max response: hits give low values
How it was run: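 Viability read-out was resazurin reduction (alamarBlue, 24 h) measured at Ex 525/Em 598 nm. Beforehand, late-stage (III-V) 3D7 P. falciparum gametocytes at 20,000 cells/well were incubated with compound 72 h at 37C under 5% CO2.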

[14] = qHTS for Inhibitors of Ubiquitin-specific Protease USP2a Using CHOP2 as the Reporter: K633 Counterscreen (AID 652168); also: % of control where 0% means no effect
How it was run: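 Cell-free interference counterscreen without USP2a: compounds pinned into enzyme-free buffer (20 mM Tris pH 8, 2 mM beta-mercaptoethanol, 0.05% Chaps), then DiUb K48-4IQF substrate added (100 nM stock); fluorescence read kinetically, Ex 525/Em 598.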

[15] = qHTS for Inhibitors of Ubiquitin-specific Protease USP2a Using CHOP2 as the Reporter: Cytotox Assay (AID 652170); also: potency is read from the fitted curve at half-maximal effect; nearly all actives have a fitted effect of over 70% in size
How it was run: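 HCT116 human colon cancer cells, 600 per well in DMEM with 10% FBS, exposed to compounds for 72 hr at 37 deg C. ATP measured by CellTiter-Glo luminescence, normalized to DMSO cells and no-cell background.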

[16] = Primary qHTS for inhibitors of nuclear receptor binding SET domain protein 2 (NSD2) in an RCH-ACV wild type WT cells (2C) (AID 1645877); also: nearly all actives have a fitted effect of over 70% in size; also: potency is read from the fitted curve at half-maximal effect; as to activity change, negative = cell killing: % is scaled to controls: 0 for no effect and ±100 for the full control effect
[17] = target: Rap guanine nucleotide exchange factor 4 (Homo sapiens) (UniProt Q8WZA2); assay: Confirmatory qHTS for agonist of cAMP-regulated guanine nucleotide exchange factor 4 (EPAC2) (AID 1645884); details: EPAC2 GEF activity, Rap1B-BODIPY-GDP fluorescence; activation: at 154 µM (top of the series), percent relative to cAMP agonist control;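 also: nucleotide exchange releases bodipy-GDP from Rap1 and this lowers its fluorescence; potency is read from the fitted curve at half-maximal effect; nearly all actives have a fitted effect of over 65% in size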
[18] = target: Rap guanine nucleotide exchange factor 3 (Homo sapiens) (UniProt O95398); assay: Counterscreen qHTS for agonist of cAMP-regulated guanine nucleotide exchange factor 3 (EPAC1) (AID 1645889); details: EPAC1 Rap1B-BODIPY-GDP exchange, fluorescence; activation: at 154 µM (top of the series) unless noted; also: % of control where 0% means no effect; nearly all actives have a fitted effect of over 40% in size
How it was run: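 Rap1B–BODIPY-GDP (250 nM) with 50 uM GDP; compounds pin-transferred to 9.74 nM–152 uM final (activator) or from 7.32 nM upwards (inhibitor). Fluorescence Ex/Em 480/540 nm read at 5 and 30 min, then after adding cAMP or buffer, at room temperature.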

[19] = NCATS anti-infectives library activity on the primary C. elegans qHTS viability assay (AID 1745855; calls by dose curve)
How it was run: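 Viability read-out is GFP fluorescence of PE254-GFP-FLuc C. elegans, measured by laser cytometry (488 nm) at day 0, 3 and 7. Ten L1 worms per well were incubated 7 days at 21 °C with compounds and bacterial capsules in S medium.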

[20] = Primary qHTS for inhibitors of nuclear receptor binding SET domain protein 2 (NSD2) in an isogenic RCH-ACV NSD2 p.E1099K mutant (9B) (AID 1645876); also: nearly all actives have a fitted effect of over 70% in size; also: potency is read from the fitted curve at half-maximal effect
Tags tell the direction and shape of the fitted curve.

Chain of UniProt P11712 (P11712 whole entry, looked up): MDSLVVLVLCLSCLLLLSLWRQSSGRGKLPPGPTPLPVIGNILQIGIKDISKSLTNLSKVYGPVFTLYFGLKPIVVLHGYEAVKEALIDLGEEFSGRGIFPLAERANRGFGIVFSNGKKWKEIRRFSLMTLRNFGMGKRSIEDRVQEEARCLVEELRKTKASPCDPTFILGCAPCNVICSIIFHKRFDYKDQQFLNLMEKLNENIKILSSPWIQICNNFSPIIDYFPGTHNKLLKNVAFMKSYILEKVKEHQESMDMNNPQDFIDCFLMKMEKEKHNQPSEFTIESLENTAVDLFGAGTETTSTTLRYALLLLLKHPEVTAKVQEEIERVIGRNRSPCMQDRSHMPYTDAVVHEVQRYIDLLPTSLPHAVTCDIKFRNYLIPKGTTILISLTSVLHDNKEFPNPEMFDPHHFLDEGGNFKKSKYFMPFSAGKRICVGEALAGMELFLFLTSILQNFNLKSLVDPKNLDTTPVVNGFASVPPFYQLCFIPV
Chain of UniProt P36969 (P36969 whole entry, looked up): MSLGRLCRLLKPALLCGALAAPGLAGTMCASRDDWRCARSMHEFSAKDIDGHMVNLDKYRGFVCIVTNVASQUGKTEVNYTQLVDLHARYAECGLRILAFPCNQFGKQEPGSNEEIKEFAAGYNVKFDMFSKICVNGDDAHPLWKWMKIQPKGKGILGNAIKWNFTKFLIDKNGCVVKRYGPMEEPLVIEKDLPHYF
Chain of UniProt P08482 (P08482 whole entry, looked up): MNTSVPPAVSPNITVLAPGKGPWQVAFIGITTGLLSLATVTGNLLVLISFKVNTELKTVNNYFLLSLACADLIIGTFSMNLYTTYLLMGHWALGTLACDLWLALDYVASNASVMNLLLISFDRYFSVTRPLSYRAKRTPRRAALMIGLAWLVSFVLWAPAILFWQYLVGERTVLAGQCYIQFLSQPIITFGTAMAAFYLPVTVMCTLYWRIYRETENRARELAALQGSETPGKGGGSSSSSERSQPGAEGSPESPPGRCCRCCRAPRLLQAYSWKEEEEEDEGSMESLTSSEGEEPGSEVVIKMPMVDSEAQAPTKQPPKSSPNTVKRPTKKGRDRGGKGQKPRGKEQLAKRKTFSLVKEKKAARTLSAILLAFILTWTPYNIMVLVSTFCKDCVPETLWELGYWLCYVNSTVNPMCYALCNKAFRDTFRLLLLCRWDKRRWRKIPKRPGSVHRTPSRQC
Chain of UniProt Q9BV86 (Q9BV86 whole entry, looked up): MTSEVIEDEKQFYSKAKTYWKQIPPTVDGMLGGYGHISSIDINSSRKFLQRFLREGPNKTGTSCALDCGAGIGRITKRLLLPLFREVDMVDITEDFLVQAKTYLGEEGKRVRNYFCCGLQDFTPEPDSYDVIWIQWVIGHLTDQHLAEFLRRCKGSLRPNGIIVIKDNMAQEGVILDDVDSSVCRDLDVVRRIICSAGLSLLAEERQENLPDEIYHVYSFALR
Chain of UniProt P21728 (P21728 whole entry, looked up): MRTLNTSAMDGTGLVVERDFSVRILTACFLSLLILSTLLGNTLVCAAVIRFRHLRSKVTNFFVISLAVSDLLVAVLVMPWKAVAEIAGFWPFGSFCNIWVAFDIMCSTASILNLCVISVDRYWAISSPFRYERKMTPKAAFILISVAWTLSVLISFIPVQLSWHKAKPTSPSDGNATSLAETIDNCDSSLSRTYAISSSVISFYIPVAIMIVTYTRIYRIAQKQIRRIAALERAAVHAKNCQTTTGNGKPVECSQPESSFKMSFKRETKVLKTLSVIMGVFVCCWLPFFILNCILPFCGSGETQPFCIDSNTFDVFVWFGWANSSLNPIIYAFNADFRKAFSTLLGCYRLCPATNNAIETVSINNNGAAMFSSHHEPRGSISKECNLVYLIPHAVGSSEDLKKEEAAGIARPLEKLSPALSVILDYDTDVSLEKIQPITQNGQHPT
Chain of UniProt Q8WZA2 (Q8WZA2 whole entry, looked up): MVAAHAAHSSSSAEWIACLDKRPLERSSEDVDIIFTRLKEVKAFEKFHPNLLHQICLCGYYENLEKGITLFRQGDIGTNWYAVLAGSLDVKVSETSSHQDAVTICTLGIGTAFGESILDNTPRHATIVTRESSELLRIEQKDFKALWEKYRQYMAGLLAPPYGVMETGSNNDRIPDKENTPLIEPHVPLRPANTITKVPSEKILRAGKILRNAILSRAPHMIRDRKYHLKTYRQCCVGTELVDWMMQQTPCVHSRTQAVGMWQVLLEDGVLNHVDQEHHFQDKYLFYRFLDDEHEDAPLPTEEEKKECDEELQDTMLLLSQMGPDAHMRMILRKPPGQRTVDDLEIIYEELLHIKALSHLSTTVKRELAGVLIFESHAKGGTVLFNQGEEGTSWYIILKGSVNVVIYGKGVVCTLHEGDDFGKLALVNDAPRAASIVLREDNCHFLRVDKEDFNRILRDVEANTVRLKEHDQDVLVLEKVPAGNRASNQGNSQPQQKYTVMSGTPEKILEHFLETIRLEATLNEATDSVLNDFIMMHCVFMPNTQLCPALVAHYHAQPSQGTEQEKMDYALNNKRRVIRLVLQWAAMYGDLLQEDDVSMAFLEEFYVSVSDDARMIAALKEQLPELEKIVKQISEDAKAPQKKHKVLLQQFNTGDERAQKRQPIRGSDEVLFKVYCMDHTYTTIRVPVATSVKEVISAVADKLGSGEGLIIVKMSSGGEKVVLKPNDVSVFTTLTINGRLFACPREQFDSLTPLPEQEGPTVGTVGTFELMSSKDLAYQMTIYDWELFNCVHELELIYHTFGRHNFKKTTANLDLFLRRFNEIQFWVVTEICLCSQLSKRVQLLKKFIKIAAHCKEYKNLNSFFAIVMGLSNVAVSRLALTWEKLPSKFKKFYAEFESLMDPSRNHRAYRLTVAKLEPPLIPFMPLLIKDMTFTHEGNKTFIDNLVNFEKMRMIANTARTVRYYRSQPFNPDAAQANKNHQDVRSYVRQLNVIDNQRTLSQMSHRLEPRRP
Chain of UniProt O95398 (O95398 whole entry, looked up): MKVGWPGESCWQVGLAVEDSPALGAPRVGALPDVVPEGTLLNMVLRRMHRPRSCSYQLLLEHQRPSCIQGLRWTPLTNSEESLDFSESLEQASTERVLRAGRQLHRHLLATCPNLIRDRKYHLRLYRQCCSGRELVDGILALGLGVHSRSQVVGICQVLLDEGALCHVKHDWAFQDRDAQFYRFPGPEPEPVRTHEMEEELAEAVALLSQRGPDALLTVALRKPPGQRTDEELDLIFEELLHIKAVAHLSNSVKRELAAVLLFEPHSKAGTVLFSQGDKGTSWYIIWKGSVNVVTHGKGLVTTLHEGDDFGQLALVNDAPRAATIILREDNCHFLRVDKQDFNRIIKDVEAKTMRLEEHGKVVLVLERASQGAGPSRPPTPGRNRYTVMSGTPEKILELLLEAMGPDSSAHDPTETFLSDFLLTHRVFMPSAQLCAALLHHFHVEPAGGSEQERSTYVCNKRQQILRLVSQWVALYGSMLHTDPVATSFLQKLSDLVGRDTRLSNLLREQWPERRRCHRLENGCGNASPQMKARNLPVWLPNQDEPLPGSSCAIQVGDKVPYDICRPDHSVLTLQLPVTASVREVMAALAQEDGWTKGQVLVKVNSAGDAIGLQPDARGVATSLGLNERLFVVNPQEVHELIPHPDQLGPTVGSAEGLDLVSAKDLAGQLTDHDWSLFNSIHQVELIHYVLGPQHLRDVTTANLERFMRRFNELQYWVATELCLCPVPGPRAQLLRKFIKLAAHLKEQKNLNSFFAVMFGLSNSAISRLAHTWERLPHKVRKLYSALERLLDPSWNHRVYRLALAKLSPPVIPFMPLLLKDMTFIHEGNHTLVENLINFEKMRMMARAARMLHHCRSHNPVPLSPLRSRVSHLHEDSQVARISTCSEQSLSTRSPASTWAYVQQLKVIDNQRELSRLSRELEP
Chain of UniProt O15648 (O15648 whole entry, looked up): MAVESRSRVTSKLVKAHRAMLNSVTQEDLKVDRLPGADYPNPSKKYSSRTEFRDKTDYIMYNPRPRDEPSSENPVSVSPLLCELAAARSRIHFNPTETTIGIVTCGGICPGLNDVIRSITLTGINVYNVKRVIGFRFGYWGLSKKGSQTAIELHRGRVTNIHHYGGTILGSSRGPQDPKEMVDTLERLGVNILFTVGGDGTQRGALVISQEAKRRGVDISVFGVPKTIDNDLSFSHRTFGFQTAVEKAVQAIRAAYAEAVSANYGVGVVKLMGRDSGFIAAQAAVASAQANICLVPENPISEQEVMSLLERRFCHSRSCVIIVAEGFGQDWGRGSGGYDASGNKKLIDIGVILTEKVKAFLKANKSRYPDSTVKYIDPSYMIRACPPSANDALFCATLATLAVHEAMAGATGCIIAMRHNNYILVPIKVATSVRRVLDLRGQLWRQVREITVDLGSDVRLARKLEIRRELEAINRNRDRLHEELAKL

In the case of `COc1ccc(C(=O)Nc2ccc3oc(-c4ccc(OC)cc4)nc3c2)cc1`, the Potency [1] is reported as inconclusive [inhibitor, full curve].

In the case of `Oc1ccc(Cl)cc1Nc1nc2ccccc2n2cnnc12`, the Potency [2] is reported as inconclusive [inhibitor, partial curve].

In the case of `CC1(C)C(/C=C/C=C/C=C/C=C2/N(CCCCS(=O)(=O)O)c3ccc4ccccc4c3C2(C)C)=[N+](CCCCS(=O)(=O)[O-])c2ccc3ccccc3c21`, the Potency [1] is reported as active: 13.5 µM and the Potency [3] is reported as inconclusive [inhibitor, single point].

For `C[N+]1(C)CCC(OC(=O)C(c2ccccc2)c2ccccc2)CC1`, the activity change, negative = inhibition [4] was active: -75% [at 38 µM], the activity change, negative = inhibition [5] was inconclusive: 7.92% and the Potency [6] was “inactive”. For the same compound, the activation [7] was inactive: 0.751%, the activity change, negative = inhibition [8] was inconclusive: -9.42% [phenotype inactive] and the Potency [9] was active: 0.0158 µM. The Potency [10] was active: 0.0112 µM, the Potency [11] was “inactive” and the Potency [12] was inconclusive [activator, partial curve]. The Potency [13] was inconclusive [inhibitor, single point].

For `Cc1cc(F)ccc1S(=O)(=O)Nc1cnccc1C(=O)Nc1nc(-c2ccccc2)cs1`, the Potency [14] was “inactive” and the Potency [15] was inconclusive [cytotoxic, single point].

In the case of `CCOC(=O)N1CCN(C(=O)Cn2sc3nc(C)cc(C)c3c2=O)CC1`, the Potency [16] is reported as inconclusive [inhibitor, single point].

For `O=C(/C=C/c1ccc(/C=C/C(=O)Nc2ccc(C3=NCCN3)cc2)cc1)Nc1ccc(C2=NCCN2)cc1`, the activity change, negative = cell killing [16] was inactive: -11% [at 4.96 µM].

In the case of `COc1cc2c(cc1OC)C(c1cccc(Cl)c1)CC(=O)N2` (stereo unspecified), the Potency [17] is reported as inconclusive [activator, partial curve, poor fit] and the activation [18] is reported as inconclusive: 41.7% [activator].

With `Cc1c(-c2cnccn2)ssc1=S` the Potency [19] was “inactive” and the Potency [3] was inconclusive [inhibitor, partial curve].

With `CC(C)=CCC[C@](C)(O[C@@H]1O[C@H](CO[C@@H]2OC[C@H](O)[C@H](O)[C@H]2O)[C@@H](O)[C@H](O)[C@H]1O)[C@H]1CC[C@]2(C)[C@@H]1[C@H](O)C[C@@H]1[C@@]3(C)CC[C@H](O[C@@H]4O[C@H](CO)[C@@H](O)[C@H](O)[C@H]4O[C@@H]4O[C@H](CO)[C@@H](O)[C@H](O)[C@H]4O)C(C)(C)[C@@H]3CC[C@]12C` the Potency [20] was “inactive” and the Potency [16] was “inactive”.

For `C=CC(=O)N[C@H]1CCOC[C@H]1Nc1ncc2cc(-c3c(Cl)c(OC)cc(OC)c3Cl)ccc2n1`, the Potency [20] was inconclusive [inhibitor, partial curve] and the Potency [16] was inconclusive [inhibitor, single point].

In the case of `O=C1CCCC2=C1C(c1ccccc1Br)N=C(Nc1nc3ccccc3o1)N2` (stereo unspecified), the Potency [20] is reported as “inactive”.

With `CN[C@@H](C)C(=O)N[C@H](C(=O)N1CCC[C@H]1C(=O)Nc1snnc1-c1ccccc1)C1CCCCC1` the Potency [20] was inconclusive [inhibitor, partial curve] and the Potency [16] was inconclusive [inhibitor, single point].

In the case of `N#Cc1cccc(CN2CCC(N(Cc3cccnc3)C(=O)Nc3ccccc3-c3ccccc3)CC2)c1`, the Potency [20] is reported as inconclusive [inhibitor, single point] and the Potency [16] is reported as inconclusive [inhibitor, single point].

For `CC1=C2C[C@H]3OC(=O)[C@H](O)[C@@]4(O)[C@@H](C)[C@@H](O)[C@H](O)C([C@@]2(C)[C@H](O)[C@@H](O)C1)[C@@]34C` (stereo partly specified), the Potency [20] was inconclusive [inhibitor, single point] and the Potency [16] was inconclusive [inhibitor, single point].

With `CCOc1ccc(-n2c([C@@H](C)N(Cc3cccnc3)C(=O)Cc3ccc(F)c(C(F)(F)F)c3)nc3ncccc3c2=O)cc1` the Potency [20] was inconclusive [inhibitor, single point].

With `C[C@@H]1C[C@@H]([C@@H](O)C(C)(C)O)O[C@H]2C[C@@]3(C)C(=C12)C[C@H](O)[C@H]1[C@@]2(C)CCC(=O)C(C)(C)C2CC[C@@]13C` (stereo partly specified) the Potency [20] was “inactive”.

For `O=C(Nc1cccc(Nc2cc(Nc3cccc(C(F)(F)F)c3)ncn2)c1)C1CC1`, the Potency [20] was active: 0.731 µM and the Potency [16] was active: 0.92 µM.

With `CC(C)C[C@@H]1NC(=O)[C@@H](C(C)C)NC(=O)[C@@H]2CCCN2C(=O)[C@@H](CC(=O)O)NC(=O)[C@@H](Cc2c[nH]c3ccccc23)NC1=O` the Potency [20] was “inactive”.

With `Cc1ccc(NS(=O)(=O)c2cc3c(cc2NC(C)CO)NC(=O)CC3)cc1C` (stereo unspecified) the Potency [20] was inconclusive [inhibitor, single point] and the Potency [16] was inconclusive [inhibitor, partial curve, poor fit].

For `CC(=O)N[C@H]1[C@H](O[C@H]2CC[C@]3(C)C4CC=C5[C@@H]6CC(C)(C)CC[C@]6(C(=O)O)[C@H](O)C[C@@]5(C)[C@]4(C)CC[C@H]3C2(C)C)O[C@H](CO)[C@@H](O)[C@@H]1O` (stereo partly specified), the Potency [20] was inconclusive [inhibitor, partial curve, poor fit].
